Measurements as given in PubChem BioAssay AID504332 (National Center for Advancing Translational Sciences (NCATS), 2011).
Where “and” joins values, the source holds several entries; their conditions need not be identical. Equal entries are not always repeated. Out of some 350,000 compounds screened, about 31,000 (8.9%) were called active. The inconclusive results got no clear call from the source; some entries with a clear call stand among them for comparison. Calls follow the shape of the dose curve; as a rule, active = well fitted inhibition curve with a large enough effect; inconclusive = small, poorly fitted or top-dose-only effect; inactive = no such curve, though single readings can be large or run the other way. A potency beside an inconclusive call is a rough fit, not a confirmed value.

target: Histone-lysine N-methyltransferase EHMT2 (Homo sapiens) (UniProt Q96KQ7); assay: qHTS Assay for Inhibitors of Histone Lysine Methyltransferase G9a; settings: G9a H3K9 monomethylation, AlphaScreen, 2 h; activity, negative = inhibition: at 59 µM (top of the series) unless noted; also: nearly all actives have a fitted effect of over 75% in size
How it was run: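 Signal arises when biotinylated H3K9 peptide, once monomethylated, bridges streptavidin donor and antibody-captured acceptor beads. Enzyme at 20 nM was preincubated 15 min with test compounds; peptide 500 nM and SAM 20 uM then reacted for 2 h.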
% is scaled to controls: 0 for no effect and ±100 for the full control effect; potency is read from the fitted curve at half-maximal effect; tags tell the direction and shape of the fitted curve.

Sequence of UniProt Q96KQ7 (Q96KQ7 whole entry, looked up): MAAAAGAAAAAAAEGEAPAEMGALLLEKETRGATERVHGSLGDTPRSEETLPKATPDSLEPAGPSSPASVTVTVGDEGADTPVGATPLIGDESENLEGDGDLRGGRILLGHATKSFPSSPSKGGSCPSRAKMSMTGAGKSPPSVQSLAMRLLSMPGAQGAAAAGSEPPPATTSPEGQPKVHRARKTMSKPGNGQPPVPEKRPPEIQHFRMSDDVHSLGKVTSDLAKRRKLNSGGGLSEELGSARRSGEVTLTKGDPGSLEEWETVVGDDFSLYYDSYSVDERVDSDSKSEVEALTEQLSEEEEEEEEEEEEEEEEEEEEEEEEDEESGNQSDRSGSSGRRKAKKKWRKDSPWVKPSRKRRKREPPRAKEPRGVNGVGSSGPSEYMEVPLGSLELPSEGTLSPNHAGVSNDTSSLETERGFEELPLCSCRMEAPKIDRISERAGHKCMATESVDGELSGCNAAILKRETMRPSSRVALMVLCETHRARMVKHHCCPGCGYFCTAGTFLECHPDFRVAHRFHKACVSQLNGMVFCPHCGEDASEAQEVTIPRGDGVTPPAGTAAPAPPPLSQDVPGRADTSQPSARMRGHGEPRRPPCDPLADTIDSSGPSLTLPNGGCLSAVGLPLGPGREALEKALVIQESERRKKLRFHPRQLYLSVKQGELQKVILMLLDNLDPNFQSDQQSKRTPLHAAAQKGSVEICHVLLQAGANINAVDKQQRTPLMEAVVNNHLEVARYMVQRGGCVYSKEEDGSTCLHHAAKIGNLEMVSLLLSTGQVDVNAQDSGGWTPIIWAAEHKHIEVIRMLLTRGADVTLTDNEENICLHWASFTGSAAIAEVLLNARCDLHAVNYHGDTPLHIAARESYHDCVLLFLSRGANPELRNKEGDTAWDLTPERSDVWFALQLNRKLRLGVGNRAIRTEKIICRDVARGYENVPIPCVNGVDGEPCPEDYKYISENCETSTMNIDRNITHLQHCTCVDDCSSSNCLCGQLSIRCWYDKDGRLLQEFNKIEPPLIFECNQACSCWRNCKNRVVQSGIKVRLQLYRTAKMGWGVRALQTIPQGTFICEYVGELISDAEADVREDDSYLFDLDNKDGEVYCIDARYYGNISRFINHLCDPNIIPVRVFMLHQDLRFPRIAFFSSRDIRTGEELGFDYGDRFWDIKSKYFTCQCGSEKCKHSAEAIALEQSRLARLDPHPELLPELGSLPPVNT

Compound | Potency | activity, negative = inhibition
CCOC(=O)CSc1nnc(CSc2nc(C)cc(C)n2)n1Cc1ccco1 | inconclusive: 2.51 µM [inhibitor, partial curve] | 
COc1ccc(CNC(=O)CCNS(=O)(=O)c2ccc(NC(C)=O)cc2)cc1OC |  | inactive: 27.4% [at 12.7 µM]
O=C1N[C@@H](Cc2ccccc2)C(=O)N1CCN1CCOCC1 | inconclusive: 12.6 µM [inhibitor, partial curve, poor fit] | 
Oc1ccccc1/C=N/Nc1cccc2cccnc12 |  | inactive: -8.78% [at 0.0925 µM]
CCN(C(=O)COC(=O)/C(=C/c1ccccc1)n1nnnc1C)C1CCCCC1 | inconclusive: 89.1 µM [inhibitor, partial curve, poor fit] | 
O=S(=O)(NC(=S)NC1CCCCC1)c1ccc(Br)cc1 | inconclusive: 56.2 µM [inhibitor, partial curve] | 
O=C(C1=C(O)C(=O)N(CCCN2CCOCC2)C1c1ccccn1)c1cc2ccccc2o1 (stereo not drawn) | active: 39.8 µM | 
COc1ccc(CCCc2nnc(SCC(=O)Nc3ccc(Cl)cc3)o2)cc1 |  | inactive: -33.9%
CCOc1ccc(-c2cc(CCCC(=O)NCCc3ccc(OC)c(OC)c3OC)no2)cc1 | inconclusive: 79.4 µM [inhibitor, single point] | 
COc1ccc(-n2nc(C(=O)NCC(=O)NCCCN3CCOCC3)c3ccccc3c2=O)cc1OC | inconclusive: 39.8 µM [inhibitor, single point] | 
c1ccn(-c2ccc(-c3ccn[nH]3)cc2)c1 | inconclusive: 50.1 µM [inhibitor, partial curve] | 
CC(C)(C)c1cc[n+](-c2[nH]c(=O)sc2/C=N/N=C(\[O-])c2cccnc2)cc1 | inconclusive: 7.94 µM [inhibitor, partial curve, poor fit] | 
CC(=O)NC(CC(=O)Nc1ccc(S(=O)(=O)N2CCCC2)cc1)c1ccccc1 (stereo not drawn) | active: 28.2 µM | 
COc1ccc([C@@H]2Sc3cc(OC)ccc3N(CCN(C(C)C)C(C)C)C(=O)[C@H]2OC(C)=O)cc1 | inconclusive: 39.8 µM [inhibitor, single point] | 
O=C(CSc1nc2[nH]ncc2c(=O)[nH]1)Nc1ccc(F)cc1 | inconclusive: 50.1 µM [inhibitor, partial curve] | 
COC(=O)c1[nH]c2cccc(OC)c2c1NC(=O)CCN1CCN(c2cccc(Cl)c2)CC1 | active: 50.1 µM | 
O=C(Cc1cccc2ccccc12)Nc1ccc(Br)cc1C(=O)O | inconclusive: 89.1 µM [inhibitor, single point] | 
Cc1ccccc1CN1C(=O)C(O)(CC(=O)c2cccc(Br)c2)c2ccccc21 (stereo not drawn) |  | inactive: 13.4%
O=C(OCc1nnc(-c2ccccc2)o1)C1CC(=O)N(Cc2ccco2)C1 (stereo not drawn) | inconclusive: 89.1 µM [inhibitor, single point] | 
Nc1nnc(SCC(=O)Nc2cccc(Cl)c2)s1 | inconclusive: 50.1 µM [inhibitor, partial curve, poor fit] | 
COc1ccc(S(=O)(=O)N2N=C(c3ccc(NS(C)(=O)=O)cc3)CC2c2ccco2)cc1 (stereo not drawn) | inconclusive: 50.1 µM [inhibitor, partial curve, poor fit] | 
Cc1[nH]n(-c2ccc([N+](=O)[O-])cc2)c(=O)c1C=NCCN1CCN(C(=O)c2ccc(Br)cc2)CC1 | inconclusive: 89.1 µM [inhibitor, partial curve, poor fit] | 
Cc1c(C(=O)NCc2ccccc2)oc2c1-c1[nH]ncc1CC2 | inconclusive: 35.5 µM [inhibitor, single point] | 

Compound | Potency | activity, negative = inhibition
O=C(CCc1ccccc1)Nc1ccccc1[N+](=O)[O-] | inconclusive: 50.1 µM [inhibitor, partial curve, poor fit] | 
COc1cc(NC(=O)CN(c2ccc(C)cc2)S(=O)(=O)c2c(C)noc2C)cc(OC)c1 |  | inactive: -12.3% [at 102 µM]
Cc1ccc(CN(Cc2cccnc2)C(=O)CN2C(=O)COc3ccccc32)o1 | inconclusive: 28.2 µM [inhibitor, single point] | 
CCOc1ccccc1C1Nc2ccccc2-c2nnc(SCc3ccccc3)nc2O1 (stereo not drawn) | inconclusive: 25.1 µM [inhibitor, single point] | 
O=C(Nc1ccc(N2CCCCC2)cc1)c1ccc([N+](=O)[O-])o1 | active: 39.8 µM | 
O=C1CNC(=O)/C(=C/c2ccco2)N1 |  | inactive: -42.9% [at 102 µM]
O=C(CCCN=C1NS(=O)(=O)c2ccccc21)OCC(=O)c1ccccc1 | inconclusive: 39.8 µM [inhibitor, partial curve, poor fit] | 
Cn1c(=O)c(C(=O)CN2CC(=O)Nc3ccccc32)c(N)n(Cc2ccccc2)c1=O | inconclusive: 25.1 µM [inhibitor, full curve, poor fit] | 
COc1cccc(C2=CC(c3ccccc3)n3nnnc3N2)c1 (stereo not drawn) | active: 39.8 µM | 
Cc1ccc(Nc2nnc(SCC(=O)c3cc4ccccc4o3)s2)cc1C | inconclusive: 3.16 µM [inhibitor, single point] | 
COc1ccccc1-n1c2c(cc(C(=O)N3CCC(C)CC3)c1=O)C(=O)CC(C)(C)C2 |  | inactive: -37.3% [at 102 µM]
CCOc1ccc(-c2nnc(SCC(=O)NCCc3ccccc3)nc2-c2ccc(OCC)c(OC)c2)cc1OC | inconclusive: 35.5 µM [inhibitor, single point] | 
CCOC(=O)c1ccc(CSc2ncn[nH]2)o1 | inconclusive: 3.55 µM [inhibitor, single point] | 
CCOC(=O)c1cncc(C(=O)O)c1 | inconclusive: 8.91 µM [inhibitor, single point] | 
CCn1c(CCCNC(=O)c2cccs2)nc2ccccc21 | inconclusive: 39.8 µM [inhibitor, partial curve, poor fit] | 
N=c1oc2cc(O)ccc2cc1C(=O)Nc1ccc(Br)cc1 |  | inactive: 89.5% [at 102 µM]
CCOC(=O)C1CCN(C(c2cccnc2)c2c(NC(=O)c3ccco3)sc(C)c2C)CC1 (stereo not drawn) | inconclusive: 35.5 µM [inhibitor, single point] | 
Cc1nc2ccc(NC(=O)CSc3nnc(C)s3)cc2[nH]1 | active: 39.8 µM | 
CC1=C(c2ccccc2)SC2=NCCN21 | inconclusive: 89.1 µM [inhibitor, single point] | 
CC(C)(C)c1nn(-c2ccccc2)c2[nH]c(=O)c(CNc3ccc4c(c3)OCCO4)cc12 | active: 35.5 µM | 
COc1ccc(OCC(=O)N2CCN(c3nnc(-c4ccc(C)cc4)c4ccccc34)CC2)cc1 |  | inconclusive: -70.5% [inhibitor]
COC(=O)c1c(-c2ccc(C(C)(C)C)cc2)csc1NC(=O)C1C2CCC(O2)C1C(=O)O (stereo not drawn) | active: 1.78 µM | 
COc1ccc(/C=N/Nc2nnc(C)n2N)cc1OC(C)=O | active: 44.7 µM | 

Compound | Potency | activity, negative = inhibition
Cn1c(CN2CCCCC2)nc2cc(NC(=O)c3ccc(Cl)cc3)ccc21 | inconclusive: 39.8 µM [inhibitor, single point] and inconclusive: 28.2 µM [inhibitor, single point] | 
O=C(COn1nnc2ccc(C(F)(F)F)cc21)Nc1c(Cl)cccc1Cl |  | inactive: -11.4%
CCOC(=O)c1cnc(NCc2ccc(Cl)cc2)c2ccccc12 |  | inactive: 68.3%
O=C(Cc1ccc(F)cc1)NCCc1csc(-c2ccc(C(F)(F)F)cc2)n1 |  | inactive: -0.965%
O=C(NCc1ccccn1)C1CCCN(S(=O)(=O)c2ccccc2)C1 (stereo not drawn) | active: 35.5 µM | 
S=C(NCC1CCCO1)Nc1ccc(Nc2ccccc2)cc1 (stereo not drawn) | inconclusive: 50.1 µM [inhibitor, partial curve] | 
O=C(O)CCc1ccc(-c2ccc(Cl)cc2)n1-c1cccc(C(F)(F)F)c1 | active: 15.8 µM | 
COC(=O)Cc1ccc(NC(=S)NCc2ccc(S(N)(=O)=O)cc2)cc1 | inconclusive: 1 µM [inhibitor, single point] | 
Cc1nn(-c2ccccc2)c2sc(C(=O)N3CCCCC3)cc12 |  | inactive: 7.15%
CCCc1nnc(NC(=O)CN2CCOCC2)s1 | inconclusive: 89.1 µM [inhibitor, single point] | 
O=[N+]([O-])c1cnc(Sc2ccncn2)s1 | active: 10 µM | 
CC(=O)c1c(C)[nH]c(C(=O)NNC(=O)COc2ccc(Cl)cc2C)c1C | inconclusive: 56.2 µM [inhibitor, partial curve, poor fit] | 
NC(CO)C12CC3CC(CC(C3)C1)C2 (stereo not drawn) | inconclusive: 100 µM [inhibitor, single point] | 
COc1cccc2sc(N3CCN(C(=O)c4cccs4)CC3)nc12 | inconclusive: 14.1 µM [inhibitor, partial curve, poor fit] | 
O=C(Oc1ccc2c(c1)OCO2)c1cc2c(s1)CCC2 |  | inactive: -31%
C=CCn1c(C)cc(C2=NNC(=Nc3ccc(C)cc3)SC2)c1C |  | inactive: -5.1% [at 102 µM]
Cc1cc(C)nc(Nc2nc(=O)c3ccccc3s2)n1 | active: 39.8 µM | 
CCN(CC(=O)Nc1c(F)cccc1F)C(=O)c1ccc(-c2ccc(C(C)=O)cc2)o1 | inconclusive: 7.08 µM [inhibitor, single point] | 
CN(C)c1ccc(-c2ccc([C@H]3[C@@H]4C=CCC[C@@]4(C)C(=O)N3Cc3ccccc3)c(F)c2)cc1 | inconclusive: 39.8 µM [inhibitor, single point] | 
Cc1ccc(CNc2ncc(-c3ccc4c(c3)OCO4)n2C)cc1 | active: 15.8 µM | 
Cn1c(=O)c(C(=O)CN2CCCc3ccccc32)c(N)n(Cc2ccccc2)c1=O | inconclusive: 39.8 µM [inhibitor, single point] | 
Cc1cc(Br)cc2c1NC(=O)C2(c1c(C)n(C)n(-c2ccccc2)c1=O)c1c(C)n(C)n(-c2ccccc2)c1=O | inconclusive: 25.1 µM [inhibitor, single point] | 
